About 2,200 (0.71%) of roughly 310,000 compounds showed an effect of 50% or more. Effects have a minus sign here. Some of the results follow.
These compounds were tested against human ether-à-go-go-related gene (hERG) potassium channel (human, UniProt Q12809) (assay: primary screen, population patch clamp on CHO cells stably expressing hERG).
Chain of human ether-à-go-go-related gene (hERG) potassium channel (Q12809 whole entry, looked up): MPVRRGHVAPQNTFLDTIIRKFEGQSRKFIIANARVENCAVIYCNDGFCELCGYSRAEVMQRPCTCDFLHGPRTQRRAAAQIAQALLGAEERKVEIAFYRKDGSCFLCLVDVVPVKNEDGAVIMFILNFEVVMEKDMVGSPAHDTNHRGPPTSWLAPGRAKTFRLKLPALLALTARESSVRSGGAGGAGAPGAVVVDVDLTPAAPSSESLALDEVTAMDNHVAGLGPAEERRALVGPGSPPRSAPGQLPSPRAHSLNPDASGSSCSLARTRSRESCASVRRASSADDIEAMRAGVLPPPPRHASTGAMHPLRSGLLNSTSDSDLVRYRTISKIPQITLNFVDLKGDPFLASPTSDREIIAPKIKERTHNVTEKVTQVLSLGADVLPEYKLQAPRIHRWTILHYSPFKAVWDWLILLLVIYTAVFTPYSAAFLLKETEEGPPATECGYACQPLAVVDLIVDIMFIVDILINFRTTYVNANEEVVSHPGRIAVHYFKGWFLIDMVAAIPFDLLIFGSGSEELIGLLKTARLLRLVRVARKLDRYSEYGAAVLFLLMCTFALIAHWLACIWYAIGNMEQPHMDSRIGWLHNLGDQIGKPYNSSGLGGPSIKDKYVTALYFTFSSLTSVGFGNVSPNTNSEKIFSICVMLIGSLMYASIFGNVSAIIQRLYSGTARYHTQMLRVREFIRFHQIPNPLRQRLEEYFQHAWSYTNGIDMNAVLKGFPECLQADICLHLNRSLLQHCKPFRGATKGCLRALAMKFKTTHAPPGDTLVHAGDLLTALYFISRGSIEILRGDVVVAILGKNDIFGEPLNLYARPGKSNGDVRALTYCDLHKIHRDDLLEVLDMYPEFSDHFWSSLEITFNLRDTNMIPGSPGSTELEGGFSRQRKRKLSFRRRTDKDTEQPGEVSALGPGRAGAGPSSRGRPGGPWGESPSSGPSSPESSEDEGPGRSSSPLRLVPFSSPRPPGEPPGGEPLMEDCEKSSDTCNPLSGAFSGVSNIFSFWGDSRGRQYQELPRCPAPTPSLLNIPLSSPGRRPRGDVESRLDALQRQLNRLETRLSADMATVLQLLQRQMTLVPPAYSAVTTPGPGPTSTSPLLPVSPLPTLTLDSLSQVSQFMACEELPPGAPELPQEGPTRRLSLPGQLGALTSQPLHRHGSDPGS

SMILES | hERG current change (%, negative = inhibition) at 1uM
COc1ccc(CSCC(=O)NN=C2CCN(C)CC2)cc1 | 2.17%
CC(C)C(NC(=O)c1ccccc1)C(=O)N1CCN(C/C=C/c2ccccc2)CC1 (centres unmarked) | -3.15%
CC(C)OCCCNC(=O)Cc1ccc(Br)cc1 | 14.8%
COc1ccc(CNC(=O)C(=O)NCC2OCCCN2S(=O)(=O)c2cccs2)cc1 (centres unmarked) | 11.4%
Cc1nn(C)c(C)c1/C=C(/C(=O)C(C)C)n1cncn1 | 10.1%
CCOC(=O)C1=C(COC(=O)c2ncc(Cl)c(Cl)c2Cl)NC(=O)NC1C (centres unmarked) | -7.95%
CCn1cc(C(=O)NC(=S)Nc2ccccc2[N+](=O)[O-])cn1 | 6.77%
CCn1c(SCc2cccc(C(=O)O)c2)nnc1-c1ccc(Cl)cc1 | 16.6%
CCOc1ccc(NC(=O)N2CCC(NC(=O)C(Cc3ccccc3OC)NC(C)=O)CC2)cc1 (centres unmarked) | 17.2%
COc1ccc(CCNC(=O)C/C(C)=N/NC(=O)c2ccc([N+](=O)[O-])cc2Cl)cc1OC | 8%
CC(C)Cc1nnc(NC(=O)CCC(=O)N2CCN(Cc3ccccc3)CC2)s1 | 7.68%
O=C(O)C(F)=C(c1ccccc1)c1ccccc1 | 15.9%
COc1ccccc1NC(=O)CCN1CCN(Cc2ccccc2)CC1 | 1.83%
Cc1ccccc1OCC(=O)N/N=C1\CCOc2c(C)cccc21 | 11.1%
O=C(NCCc1ccccn1)c1ccc(OC(F)F)cc1 | 6.39%
Cc1nn2c(nc(N3CCCCC3)c3ccccc32)c1C=O | -10.2%
Cn1c(=O)[nH]c(=O)c2c1nc(N1CCOCC1)n2CCc1ccccc1 | 11.5%
C(=N\Nc1nc2ccccc2[nH]1)/c1cccs1 | 8.27%
Clc1ccc(-c2nn3c(-c4ccccc4)nnc3s2)cc1 | -6.19%
O=C(c1ccc(Cl)cc1)c1oc2ccccc2c1CS(=O)(=O)c1ccccc1 | -18.1%
CC1CCCCC1NC(=O)CCS(=O)(=O)c1cc2c(cc1Cl)NC(=O)CO2 (centres unmarked) | -1.09%
CCCC(=O)Nc1nc(-c2ccc(OC)cc2)cs1 | 7.03%
O=S(=O)(c1cccc(-c2nnco2)c1)N1CCCC1 | 4.1%

SMILES | hERG current change (%, negative = inhibition) at 1uM
COc1cccc(/C=N/N2CCN(c3ccccc3OC)CC2)c1 | 2.68%
CCC(=O)N1CCc2cc(S(=O)(=O)NC(C(=O)NCc3ccccc3)C(C)C)ccc21 (centres unmarked) | 14.5%
COc1ccc(OC(C)C(=O)NC2CC(C)(C)NC(C)(C)C2)cc1 (centres unmarked) | -1.84%
O=C(NCC1CCCO1)C1CCN(S(=O)(=O)c2ccc(Br)cc2)CC1 (centres unmarked) | 2.01%
CCn1c(SC(C)C(=O)OC)nnc1-c1c[nH]c2ccccc12 (centres unmarked) | -4.06%
COc1ccc(NC2=NC(C)(C)CS2)cc1 | 8.36%
O=C(Cc1ccccc1)Nc1ccc(NC(=O)Cc2ccccc2)c(Cl)c1 | 26.2%
Cc1cc(C)c2sc(N(CCCN(C)C)C(=O)c3ccc(Br)s3)nc2c1.Cl | 7.12%
CCOc1ccccc1NC(=O)Cn1c(=O)n(-c2ccccc2)c(=O)c2oc3ccccc3c21 | 8.94%
Cc1ccc(NC(=O)CCOc2ccccc2C)cc1C | 8.04%
CCOC(=O)N1CCN(C(=O)C2CCN(S(C)(=O)=O)CC2)CC1 | 18.3%
CCCOC(=O)c1ccc(Nc2nc(C)cc(=O)[nH]2)cc1 | 8.99%
Br.N#Cc1ccc(OCC(=O)NN2Cc3ccccc3C2=N)cc1 | 12%
Cc1ccc(C2C3C(=O)N(c4ccc(C)cc4)C(=O)C3N3CCCN23)cc1 (centres unmarked) | 10.9%
Cc1ccc(Nc2nc(NCC3CCCO3)nc(N)c2[N+](=O)[O-])cc1C (centres unmarked) | 16.3%
Cc1ccccc1C(=O)N1CCN(c2ccccn2)CC1 | 6.38%
O=C(NCC(=O)N1CCC2(CC1)NCCc1[nH]cnc12)c1cccc(Cl)c1 | 14.5%
Cc1cccc(C(=O)Nc2ccc3c(c2)nc(C)n3C)c1 | 8.9%
CCOc1cc(C(=O)Nc2ccc(N3CCOCC3)cc2)cc(Br)c1OC | 9.93%
COC(=O)C1=C(c2ccccc2OCc2ccccc2)C[C@@H]2CC[C@H]1N2C(=O)NCc1ccc([N+](=O)[O-])cc1 | 1.54%
COc1ccccc1OCCSc1ncnc2nc[nH]c12 | 7.35%
CC(=O)NC1C(=O)N=C(SCC(=O)Nc2ccc(C(F)(F)F)cc2Cl)NC1=O (centres unmarked) | 4.54%
COCCNS(=O)(=O)c1ccccc1 | 9.2%

SMILES | hERG current change (%, negative = inhibition) at 1uM
C/C(Cn1nnc([N+](=O)[O-])n1)=N\NC(=O)c1cccc(Cl)c1 | 1.51%
CC(C)c1ccc(N(CC(=O)NC(C)(C)C)C(=O)CCC(=O)Nc2nccs2)cc1 | 8.79%
COc1ccc(C2CC(=O)C(C=NCCN3CCN(C(=S)Nc4ccccc4)CC3)=C(O)C2)cc1OC (centres unmarked) | 1.75%
COc1ccc(C(=O)NC(=S)NCc2ccccc2)cc1 | -3%
CCN(c1ccccc1)S(=O)(=O)c1nnc(NC(=O)c2ccccc2OC)s1 | 10.2%
CC(C)Oc1cccc(C(=O)C2CCCN(Cc3ccc(Oc4ncccn4)cc3)C2)c1 (centres unmarked) | -7.28%
C/C(N)=C(/C#N)C(=O)CSc1nnc(NC(C)C)s1 | 13%
CC(C)(C)NC(=O)CN(C(=O)CNC(=O)c1cccs1)c1ccc2c(c1)OCCO2 | 18%
CSCCC(NC(=O)c1cccc(C)c1)C(=O)OCN1C(=O)c2ccccc2C1=O (centres unmarked) | 3.99%
Cc1cc(C)cc(NC(=O)C(=O)NCCCN2CCCC2=O)c1 | -0.122%
CCCCc1nnc(NC(=O)CN(C)S(=O)(=O)c2ccc(C)cc2)s1 | 8.65%
Cc1ccc2oc(/N=C(\N)NC(=O)C(C)(C)C)nc2c1 | 13.9%
C=CCn1c(O)c(N=Nc2c(C)n(C)n(-c3ccccc3)c2=O)c(=O)[nH]c1=S | -2.86%
CC1Cc2nc(SCC(=O)Nc3ccc4c(c3)OCO4)n(CCc3ccccc3)c(=O)c2S1 (centres unmarked) | 16.8%
Cc1ccc2c(c1)-c1cc(C)nn1C(c1sccc1C)N2 (centres unmarked) | -8.48%
CCCOc1ccccc1NP(=O)(Oc1ccccc1)Oc1ccccc1 | 9.21%
Cc1c(C(=O)N(Cc2cccs2)C2CCS(=O)(=O)C2)oc2ccccc12 (centres unmarked) | -14.1%
O=C(NC1CCCCCC1)c1cc(S(=O)(=O)N2CCC3(CC2)OCCO3)ccc1F | 6.21%
CCc1nc(N2CCN(C(=O)c3ccco3)CC2)c(C#N)c2c1COC(C)(C)C2 | 6.75%
Cc1c(NC(=O)CN2c3ccccc3CC2C)c(=O)n(-c2ccccc2)n1C (centres unmarked) | 8.44%
CC(C)(C)/C(O)=C/c1nc2cc(Cl)ccc2oc1=O | 10.2%
O=C(Nc1nc(-c2ccccn2)cs1)c1ccc(S(=O)(=O)N2CCCCC2)cc1 | 5.29%
CCOc1ncccc1C(=O)Nc1ccc(Cl)c(S(=O)(=O)N2CCCC2)c1 | 2.41%

SMILES | hERG current change (%, negative = inhibition) at 1uM
COc1ccc(C2C(C(=O)Nc3cccnc3)=C(C)Nc3nc(-c4cccs4)nn32)cc1 (centres unmarked) | -2.21%
O=C(Cc1ccc(-n2cccc2)cc1)N1CCc2ccccc21 | 9.59%
COc1ccc(CC(=O)Nc2ccc(S(=O)(=O)Nc3ncccn3)cc2)cc1OC | 7.38%
CCCCOc1ccc(N(CC(=O)NCC2CCCO2)C(=O)CCC(=O)Nc2nccs2)cc1 (centres unmarked) | 8.94%
COc1ccc(CNC(=O)Cc2c[nH]c3ccccc23)cc1OC | 12.9%
CCOc1ccc(C(=O)NNC(=O)CNC(=O)c2ccc(C)s2)cc1OC | 12.2%
COc1ccc(OCC(O)CN2CCNCC2)cc1.Cl (centres unmarked) | 14.6%
CC(SCc1ccccc1)C(=O)Nc1ccccc1 (centres unmarked) | 14.2%
CCc1ccc(NC(=O)c2ccc3c(c2)C(=O)N(CCOC)C3Nc2ccc(CC)cc2)cc1 (centres unmarked) | 7.04%
O=C1CCCc2cc3c(cc21)CC1(C3)Cc2cc3c(cc2C1)C(=O)CCC3 | 14.4%
CC1CCN(c2ccc(NC(=O)Cc3ccccc3)cc2)CC1 | 14.8%
CCCCn1c(SCC(=O)OCC)nc2c1c(=O)[nH]c(=O)n2C | -9.19%
C=CCn1c(C)cc(C(=O)CSc2nc3ccccc3c(=O)[nH]2)c1C | 9.6%
CCOP(=O)(OCC)C(NC(=O)Nc1ccc(Cl)cc1)C(N)=O (centres unmarked) | 9.12%
O=C(CC1C(=O)NCCN1Cc1c(F)cccc1Cl)NCCCn1ccnc1 (centres unmarked) | 11.4%
COCCNS(=O)(=O)c1cc(F)ccc1OC | 4.59%
COc1cc(C2NC(=O)NC(O)(C(F)(F)F)C2C(C)=O)cc(OC)c1OC (centres unmarked) | 6.64%
C=C(C)CNC(=S)N/N=C/c1ccc(N2CCOCC2)cc1 | 17.6%
CCOC(=O)N=S(N)(=O)c1ccccc1 (centres unmarked) | -12.7%
Cn1cc(CN2CCC(n3nccc3NC(=O)Cc3ccccc3)CC2)cn1 | 6.09%
